From the supplement of paper PMC8728848
The list shows a part of the results.

Experiments:
Assay in all cases: glycan array binding signal (z-score within array); higher = stronger binding
Conditions in all cases: glycan notation: IUPAC condensed, linker removed
[1] = biological target: Man(a1-2)Man(a1-2)Man(a1-6)[Man(a1-3)]Man
Outline: (§1)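 The binding signal is a Z-score computed within each array and averaged over linkers. Arrays of the same protein sequence at different concentrations or buffers were also averaged together. Data originate from 3228 arrays in the Consortium for Functional Glycomics database, kept only where the protein sequence was available.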

Man(a1-2)Man(a1-3)Man = biological target: Man(a1-2)Man(a1-3)Man
Outline: as §1

[2] = biological target: Man(a1-2)Man(a1-3)[Man(a1-2)Man(a1-6)]Man
Outline: as §1

[3] = biological target: Man(a1-2)Man(a1-3)[Man(a1-2)Man(a1-6)]Man(a1-6)[Man(a1-2)Man(a1-2)Man(a1-3)]Man(b1-4)GlcNAc(b1-4)GlcNAc
Outline: as §1

[4] = biological target: Man(a1-2)Man(a1-3)[Man(a1-2)Man(a1-6)]Man(a1-6)[Man(a1-3)[Man(a1-6)]Man(a1-6)]Man(b1-4)GlcNAc(b1-4)GlcNAc
Outline: as §1

[5] = biological target: Man(a1-2)Man(a1-3)[Man(a1-6)]Man(a1-6)[Man(a1-2)Man(a1-3)]Man(b1-4)GlcNAc(b1-4)GlcNAc
Outline: as §1

[6] = biological target: Man(a1-2)Man(a1-6)[Man(a1-3)]Man(a1-6)[Man(a1-2)Man(a1-2)Man(a1-3)]Man(b1-4)GlcNAc(b1-4)GlcNAc
Outline: as §1

Man(a1-3)[Man(a1-6)]Man = biological target: Man(a1-3)[Man(a1-6)]Man
Outline: as §1

[7] = biological target: Man(a1-3)[Man(a1-6)]Man(a1-6)[Man(a1-3)]Man(b1-4)GlcNAc(b1-4)GlcNAc
Outline: as §1

Neu5Ac(a2-3)Gal = biological target: Neu5Ac(a2-3)Gal
Outline: as §1

[8] = biological target: Neu5Ac(a2-3)Gal(b1-3)GalNAc
Outline: as §1

[9] = biological target: Neu5Ac(a2-3)Gal(b1-3)GalNAc6S
Outline: as §1

[10] = biological target: Neu5Ac(a2-3)Gal(b1-3)GlcNAc
Outline: as §1

[11] = biological target: Neu5Ac(a2-3)Gal(b1-3)[Fuc(a1-4)]GlcNAc
Outline: as §1

[12] = biological target: Neu5Ac(a2-3)Gal(b1-3)[Neu5Ac(a2-3)Gal(b1-4)]GlcNAc
Outline: as §1

[13] = biological target: Neu5Ac(a2-3)Gal(b1-3)[Neu5Ac(a2-6)]GalNAc
Outline: as §1

Neu5Ac(a2-3)Gal(b1-4)Glc = biological target: Neu5Ac(a2-3)Gal(b1-4)Glc
Outline: as §1

[14] = biological target: Neu5Ac(a2-3)Gal(b1-4)GlcNAc
Outline: as §1

[15] = biological target: Neu5Ac(a2-3)Gal(b1-4)GlcNAc(b1-3)Gal(b1-4)GlcNAc
Outline: as §1

[16] = biological target: Neu5Ac(a2-3)Gal(b1-4)GlcNAc(b1-3)Gal(b1-4)GlcNAc(b1-3)Gal(b1-4)GlcNAc
Outline: as §1

[17] = biological target: Neu5Ac(a2-3)Gal(b1-4)GlcNAc6S
Outline: as §1

[18] = biological target: Neu5Ac(a2-3)Gal(b1-4)[Fuc(a1-3)]GlcNAc
Outline: as §1

[19] = biological target: Neu5Ac(a2-3)Gal(b1-4)[Fuc(a1-3)]GlcNAc(b1-3)Gal
Outline: as §1

[20] = biological target: Neu5Ac(a2-3)Gal(b1-4)[Fuc(a1-3)]GlcNAc(b1-3)Gal(b1-4)GlcNAc
Outline: as §1

[21] = biological target: Neu5Ac(a2-3)Gal(b1-4)[Fuc(a1-3)]GlcNAc(b1-3)Gal(b1-4)[Fuc(a1-3)]GlcNAc(b1-3)Gal(b1-4)[Fuc(a1-3)]GlcNAc
Outline: as §1

[22] = biological target: Neu5Ac(a2-3)Gal(b1-4)[Fuc(a1-3)]GlcNAc6S
Outline: as §1

[23] = biological target: Neu5Ac(a2-3)Gal6S(b1-4)GlcNAc
Outline: as §1

Neu5Ac(a2-3)GalNAc = biological target: Neu5Ac(a2-3)GalNAc
Outline: as §1

[24] = biological target: Neu5Ac(a2-3)[GalNAc(b1-4)]Gal(b1-4)Glc
Outline: as §1

[25] = biological target: Neu5Ac(a2-3)[GalNAc(b1-4)]Gal(b1-4)GlcNAc
Outline: as §1

[26] = biological target: Neu5Ac(a2-3)[Neu5Ac(a2-6)]GalNAc
Outline: as §1

Neu5Ac(a2-6)Gal = biological target: Neu5Ac(a2-6)Gal
Outline: as §1

Neu5Ac(a2-6)Gal(b1-4)Glc = biological target: Neu5Ac(a2-6)Gal(b1-4)Glc
Outline: as §1

[27] = biological target: Neu5Ac(a2-6)Gal(b1-4)GlcNAc
Outline: as §1

[28] = biological target: Neu5Ac(a2-6)Gal(b1-4)GlcNAc(b1-3)Gal(b1-4)GlcNAc
Outline: as §1

[29] = biological target: Neu5Ac(a2-6)Gal(b1-4)GlcNAc(b1-3)Gal(b1-4)[Fuc(a1-3)]GlcNAc(b1-3)Gal(b1-4)[Fuc(a1-3)]GlcNAc
Outline: as §1

[30] = biological target: Neu5Ac(a2-6)Gal(b1-4)GlcNAc6S
Outline: as §1

Neu5Ac(a2-6)GalNAc = biological target: Neu5Ac(a2-6)GalNAc
Outline: as §1

Neu5Ac(a2-8)Neu5Ac = biological target: Neu5Ac(a2-8)Neu5Ac
Outline: as §1

[31] = biological target: Neu5Ac(a2-8)Neu5Ac(a2-3)Gal(b1-4)Glc
Outline: as §1

[32] = biological target: Neu5Ac(a2-8)Neu5Ac(a2-3)[GalNAc(b1-4)]Gal(b1-4)Glc
Outline: as §1

[33] = biological target: Neu5Ac(a2-8)Neu5Ac(a2-8)Neu5Ac
Outline: as §1

[34] = biological target: Neu5Ac(a2-8)Neu5Ac(a2-8)Neu5Ac(a2-3)Gal(b1-4)Glc
Outline: as §1

[35] = biological target: Neu5Ac(a2-8)Neu5Ac(a2-8)Neu5Ac(a2-3)[GalNAc(b1-4)]Gal(b1-4)Glc
Outline: as §1

Neu5Ac(b1-6)GalNAc = biological target: Neu5Ac(b1-6)GalNAc
Outline: as §1

[36] = biological target: Neu5Ac(b2-6)Gal(b1-4)GlcNAc
Outline: as §1

[37] = biological target: Neu5Ac9Ac(a2-6)Gal(b1-4)GlcNAc
Outline: as §1

[38] = biological target: Neu5Gc(a2-3)Gal(b1-3)GlcNAc
Outline: as §1

[39] = biological target: Neu5Gc(a2-3)Gal(b1-3)[Fuc(a1-4)]GlcNAc
Outline: as §1

Neu5Gc(a2-3)Gal(b1-4)Glc = biological target: Neu5Gc(a2-3)Gal(b1-4)Glc
Outline: as §1

[40] = biological target: Neu5Gc(a2-3)Gal(b1-4)GlcNAc
Outline: as §1

[41] = biological target: Neu5Gc(a2-3)Gal(b1-4)[Fuc(a1-3)]GlcNAc
Outline: as §1

[42] = biological target: Neu5Gc(a2-6)Gal(b1-4)GlcNAc
Outline: as §1

Neu5Gc(a2-6)GalNAc = biological target: Neu5Gc(a2-6)GalNAc
Outline: as §1

B1: Hip/Pap (Homo sapiens), Q06141 (protein)
chain: MLPPMALPSVSWMLLSCLMLLSQVQGEEPQRELPSARIRCPKGSKAYGSHCYALFLSPKSWTDADLACQKRPSGNLVSVLSGAEGSFVSSLVKSIGNSYSYVWIGLHDPTQGTEPNGEGWEWSSSDVMNYFAWERNPSTISSPGHCASLSRSTAFLRWKDYNCNVRLPYVCKFTD
glycan array binding signal (z-score) [1]: 0.386
glycan array binding signal (z-score) (Man(a1-2)Man(a1-3)Man): -0.027
glycan array binding signal (z-score) [2]: 0.58
glycan array binding signal (z-score) [3]: -0.051
glycan array binding signal (z-score) [4]: -0.059
glycan array binding signal (z-score) [5]: -0.033
glycan array binding signal (z-score) [6]: 0.171
glycan array binding signal (z-score) (Man(a1-3)[Man(a1-6)]Man): 0.151
glycan array binding signal (z-score) [7]: -0.183
glycan array binding signal (z-score) (Neu5Ac(a2-3)Gal): -0.153
glycan array binding signal (z-score) [8]: -0.18
glycan array binding signal (z-score) [9]: -0.172
glycan array binding signal (z-score) [10]: -0.171
glycan array binding signal (z-score) [11]: -0.166
glycan array binding signal (z-score) [12]: 0.71
glycan array binding signal (z-score) [13]: -0.181
glycan array binding signal (z-score) (Neu5Ac(a2-3)Gal(b1-4)Glc): -0.174
glycan array binding signal (z-score) [14]: -0.068
glycan array binding signal (z-score) [15]: -0.142
glycan array binding signal (z-score) [16]: -0.133
glycan array binding signal (z-score) [17]: -0.057
glycan array binding signal (z-score) [18]: -0.143
glycan array binding signal (z-score) [19]: -0.134
glycan array binding signal (z-score) [20]: -0.145
glycan array binding signal (z-score) [21]: -0.133
glycan array binding signal (z-score) [22]: -0.04
glycan array binding signal (z-score) [23]: -0.188
glycan array binding signal (z-score) (Neu5Ac(a2-3)GalNAc): -0.184
glycan array binding signal (z-score) [24]: -0.179
glycan array binding signal (z-score) [25]: -0.173
glycan array binding signal (z-score) [26]: -0.168
glycan array binding signal (z-score) (Neu5Ac(a2-6)Gal): -0.176
glycan array binding signal (z-score) (Neu5Ac(a2-6)Gal(b1-4)Glc): -0.173
glycan array binding signal (z-score) [27]: -0.177
glycan array binding signal (z-score) [28]: -0.154
glycan array binding signal (z-score) [29]: -0.065
glycan array binding signal (z-score) [30]: -0.161
glycan array binding signal (z-score) (Neu5Ac(a2-6)GalNAc): -0.158
glycan array binding signal (z-score) (Neu5Ac(a2-8)Neu5Ac): -0.177
glycan array binding signal (z-score) [31]: -0.167
glycan array binding signal (z-score) [32]: -0.174
glycan array binding signal (z-score) [33]: -0.189
glycan array binding signal (z-score) [34]: -0.169
glycan array binding signal (z-score) [35]: -0.159
glycan array binding signal (z-score) (Neu5Ac(b1-6)GalNAc): -0.175
glycan array binding signal (z-score) [36]: -0.142
glycan array binding signal (z-score) [37]: -0.128
glycan array binding signal (z-score) [38]: -0.169
glycan array binding signal (z-score) [39]: -0.15
glycan array binding signal (z-score) (Neu5Gc(a2-3)Gal(b1-4)Glc): -0.171
glycan array binding signal (z-score) [40]: -0.181
glycan array binding signal (z-score) [41]: -0.149
glycan array binding signal (z-score) [42]: -0.189
glycan array binding signal (z-score) (Neu5Gc(a2-6)GalNAc): -0.16
